Measured values from article PMC5846801.
These are yes or no findings as the source states them, for the method shown. Some results given as binding are weak or reduced against the parent protein; the word gives no strength.

Amino acid sequences for entries named in this document (tags omitted). A change or cut given only in a name is not applied to a line headed by its entry. Chains listed by the source or under a name are the forms on record and can include a tag or linker. Residues count along the entry.
wild-type FGFR3 kinase domain (P22607, residues 455-768): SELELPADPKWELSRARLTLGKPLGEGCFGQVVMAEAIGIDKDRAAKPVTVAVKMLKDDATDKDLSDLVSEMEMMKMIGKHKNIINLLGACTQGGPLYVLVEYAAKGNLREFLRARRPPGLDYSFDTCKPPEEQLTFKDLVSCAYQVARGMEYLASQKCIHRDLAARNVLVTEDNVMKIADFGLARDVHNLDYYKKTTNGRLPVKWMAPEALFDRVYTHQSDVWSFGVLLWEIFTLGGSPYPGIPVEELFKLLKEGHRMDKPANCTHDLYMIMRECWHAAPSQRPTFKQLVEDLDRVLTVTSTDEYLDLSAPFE
FGFR3 kinase domain variant I538F (P22607, form named): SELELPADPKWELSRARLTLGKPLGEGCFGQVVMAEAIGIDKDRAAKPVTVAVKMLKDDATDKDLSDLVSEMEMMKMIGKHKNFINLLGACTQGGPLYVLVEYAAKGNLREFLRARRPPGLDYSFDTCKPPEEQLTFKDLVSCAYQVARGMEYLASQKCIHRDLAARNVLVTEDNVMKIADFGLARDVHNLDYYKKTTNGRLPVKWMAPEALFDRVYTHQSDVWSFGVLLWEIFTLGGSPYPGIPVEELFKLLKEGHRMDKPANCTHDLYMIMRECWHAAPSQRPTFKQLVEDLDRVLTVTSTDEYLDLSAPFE
FGFR3 kinase domain variant E466K (P22607, form named): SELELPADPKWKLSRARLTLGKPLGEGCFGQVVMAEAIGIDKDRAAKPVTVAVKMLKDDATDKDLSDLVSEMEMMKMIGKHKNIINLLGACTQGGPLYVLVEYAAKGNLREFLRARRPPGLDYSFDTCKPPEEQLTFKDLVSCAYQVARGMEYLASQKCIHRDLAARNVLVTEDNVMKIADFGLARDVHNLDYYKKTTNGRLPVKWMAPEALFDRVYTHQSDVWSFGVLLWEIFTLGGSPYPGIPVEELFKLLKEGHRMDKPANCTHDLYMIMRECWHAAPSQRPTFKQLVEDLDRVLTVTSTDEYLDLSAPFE
FGFR3 kinase domain variant K650E (P22607, form named): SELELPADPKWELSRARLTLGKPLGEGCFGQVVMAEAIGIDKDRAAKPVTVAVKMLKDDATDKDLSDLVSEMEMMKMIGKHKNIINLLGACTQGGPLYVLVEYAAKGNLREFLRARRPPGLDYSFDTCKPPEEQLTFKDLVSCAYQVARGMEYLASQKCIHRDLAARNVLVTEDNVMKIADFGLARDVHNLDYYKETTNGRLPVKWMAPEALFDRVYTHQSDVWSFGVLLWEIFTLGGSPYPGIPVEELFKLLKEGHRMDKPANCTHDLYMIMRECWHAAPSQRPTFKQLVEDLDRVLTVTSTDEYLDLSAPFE
FGFR3 kinase domain variant N540K (P22607, form named): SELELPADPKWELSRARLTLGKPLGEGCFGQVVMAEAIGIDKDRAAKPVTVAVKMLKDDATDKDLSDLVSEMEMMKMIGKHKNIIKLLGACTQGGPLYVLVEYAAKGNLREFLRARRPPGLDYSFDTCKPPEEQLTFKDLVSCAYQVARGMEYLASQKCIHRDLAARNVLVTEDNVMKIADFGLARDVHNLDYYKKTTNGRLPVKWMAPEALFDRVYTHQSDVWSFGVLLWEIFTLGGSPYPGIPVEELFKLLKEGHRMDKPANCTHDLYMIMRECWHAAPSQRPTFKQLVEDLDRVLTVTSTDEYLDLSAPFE
UniProt Q16543: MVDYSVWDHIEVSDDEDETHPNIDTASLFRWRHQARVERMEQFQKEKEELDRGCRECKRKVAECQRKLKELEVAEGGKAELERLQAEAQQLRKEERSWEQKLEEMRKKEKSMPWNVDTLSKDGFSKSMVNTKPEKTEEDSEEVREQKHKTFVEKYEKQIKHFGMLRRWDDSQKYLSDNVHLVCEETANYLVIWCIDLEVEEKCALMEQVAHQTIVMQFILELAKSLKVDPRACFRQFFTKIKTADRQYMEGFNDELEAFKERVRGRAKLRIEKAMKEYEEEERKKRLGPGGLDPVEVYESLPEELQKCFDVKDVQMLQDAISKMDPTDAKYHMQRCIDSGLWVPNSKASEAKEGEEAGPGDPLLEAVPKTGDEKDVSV
UniProt P21802, residues 481-770: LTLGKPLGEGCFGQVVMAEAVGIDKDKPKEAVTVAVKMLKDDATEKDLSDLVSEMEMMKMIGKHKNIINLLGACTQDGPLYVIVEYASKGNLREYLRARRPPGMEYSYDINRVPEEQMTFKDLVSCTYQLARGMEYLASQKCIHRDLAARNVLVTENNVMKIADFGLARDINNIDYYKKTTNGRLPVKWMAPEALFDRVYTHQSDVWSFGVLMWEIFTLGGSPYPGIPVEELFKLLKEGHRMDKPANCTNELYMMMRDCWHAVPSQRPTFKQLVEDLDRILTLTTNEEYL
UniProt P22455, residues 467-755: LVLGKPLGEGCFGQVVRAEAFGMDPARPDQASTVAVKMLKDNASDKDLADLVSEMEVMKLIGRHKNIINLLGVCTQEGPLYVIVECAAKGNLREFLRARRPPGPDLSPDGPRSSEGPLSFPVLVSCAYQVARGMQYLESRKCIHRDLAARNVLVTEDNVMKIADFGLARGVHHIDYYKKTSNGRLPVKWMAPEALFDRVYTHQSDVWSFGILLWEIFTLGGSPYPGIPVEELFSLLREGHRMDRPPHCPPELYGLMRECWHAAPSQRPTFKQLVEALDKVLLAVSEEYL

Tests used:
[1] = target: FGFR3 kinase domain variant I538F (human) (UniProt P22607); assay: NMR titration; unlabelled Cdc37 added to 15N-labelled kinase domain (I538F 1:0.25, 1:0.5, 1:0.7; WT 1:0.7-1:3), 1H-15N TROSY-HSQC, 283-298 K; 50 mM PIPES-NaOH, 50 mM NaCl, 5 mM TCEP, 1 mM EDTA, pH 7.0; both purified
[2] = target: wild-type FGFR3 kinase domain (human) (UniProt P22607); assay: as above
[3] = target: Cdc37 phosphorylated on serine 13 (human) (UniProt Q16543); assay: SEC; ternary mixture: 15 μM kinase, 15 μM Cdc37, 30 μM Hsp90α (1:1:2), 15 min at 4 °C; Superdex 200 Increase, 25 mM Tris.Cl, 150 mM NaCl, 1 mM TCEP, pH 8.0, 4 °C; fractions by SDS-PAGE and ELISA; both purified
[4] = target: Hsp90α (human) (UniProt P07900); assay: as above
[5] = target: Cdc37 phosphorylated on serine 13 (human) (UniProt Q16543); assay: HDX-MS; protein of interest 5 μM alone or with 7.5 μM partner, 30 min on ice, 25 mM Tris.Cl pH 8.0, 150 mM NaCl, 1 mM TCEP; exchange 0.3 s to 300 s; both purified
[6] = target: Cdc37 phosphorylated on serine 13 (human) (UniProt Q16543); assay: SEC; binary mixture: 15 μM kinase and 15 μM Cdc37 (1:1), 15 min at 4 °C; Superdex 200 Increase, 25 mM Tris.Cl, 150 mM NaCl, 1 mM TCEP, pH 8.0, 4 °C; both purified
[7] = target: Cdc37 phosphorylated on serine 13 (human) (UniProt Q16543); assay: pull-down; 50 μg His-tagged Cdc37 immobilised on Talon resin; kinase added in 25 mM Tris.Cl, 150 mM NaCl, 1 mM TCEP, 0.1% Triton-X-100, pH 8.0, 4 °C, 1 h; Coomassie; both purified
[8] = target: Cdc37 phosphorylated on serine 13 (human) (UniProt Q16543); assay: SAXS; synchrotron SAXS of Cdc37, FGFR3 I538F and their complex (batch dilution series 3.8 to 1.0 mg/mL and SEC-SAXS); both purified

| Substance | binding [3] | binding [5] | binding [7] | also measured |
| --- | --- | --- | --- | --- |
| Cdc37 phosphorylated on serine 13 (from UniProt Q16543 1-378) | – | – | – | binding [1]: binds; binding [2]: binds weakly |
| FGFR2 kinase domain (from UniProt P21802 481-770) (domain or fragment) | no binding (tested: 15 μM kinase, 15 μM Cdc37, 30 μM Hsp90α) | – | – | binding [4]: no binding (tested: 15 μM kinase, 15 μM Cdc37, 30 μM Hsp90α) |
| FGFR3 kinase domain variant E466K (from UniProt P22607 455-768) (domain or fragment) | binds | binds | binds | binding [6]: binds |
| FGFR3 kinase domain variant K650E (from UniProt P22607 455-768) (domain or fragment) | – | – | binds weakly | – |
| FGFR3 kinase domain variant N540K (from UniProt P22607 455-768) (domain or fragment) | binds | – | binds | – |
| FGFR4 kinase domain (from UniProt P22455 467-755) (domain or fragment) | no binding (tested: 15 μM kinase, 15 μM Cdc37, 30 μM Hsp90α) | – | – | binding [4]: no binding (tested: 15 μM kinase, 15 μM Cdc37, 30 μM Hsp90α) |

Continued, in another order:

| binding [3] | binding [5] | binding [7] | Substance | also measured |
| --- | --- | --- | --- | --- |
| binds | binds | binds | FGFR3 kinase domain variant I538F (from UniProt P22607 455-768) (domain or fragment) | binding [8]: binds |
| binds weakly | binds weakly | binds weakly | wild-type FGFR3 kinase domain (from UniProt P22607 455-768) (domain or fragment) | – |
